Results are given in words; binding and its absence hold for the method and conditions named. In cells and extracts the contact can be indirect. Some binding calls cover weakened binding; strength is not graded here. Tags and fused reporters may be left off the sequences shown.

Sequences of proteins named here, by UniProt entry; tags and fusion partners are left off.
UniProt Q39026: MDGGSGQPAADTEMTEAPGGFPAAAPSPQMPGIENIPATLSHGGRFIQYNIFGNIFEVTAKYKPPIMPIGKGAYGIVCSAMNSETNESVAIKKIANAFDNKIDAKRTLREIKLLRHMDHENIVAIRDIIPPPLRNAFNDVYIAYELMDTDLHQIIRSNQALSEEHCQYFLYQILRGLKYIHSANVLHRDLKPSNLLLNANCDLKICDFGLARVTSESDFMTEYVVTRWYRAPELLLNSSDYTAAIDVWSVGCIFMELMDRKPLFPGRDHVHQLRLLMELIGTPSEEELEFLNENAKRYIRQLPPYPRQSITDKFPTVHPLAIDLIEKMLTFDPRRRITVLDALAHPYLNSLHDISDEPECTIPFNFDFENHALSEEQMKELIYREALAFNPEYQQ

Results on 3 molecules are retold here after article PMC4861021.

Assay [1] has as its target T1, PTP1–GFP (PROTEIN TYROSINE PHOSPHATASE 1, wild type) (Arabidopsis) (UniProt O82656).
T1 sequence: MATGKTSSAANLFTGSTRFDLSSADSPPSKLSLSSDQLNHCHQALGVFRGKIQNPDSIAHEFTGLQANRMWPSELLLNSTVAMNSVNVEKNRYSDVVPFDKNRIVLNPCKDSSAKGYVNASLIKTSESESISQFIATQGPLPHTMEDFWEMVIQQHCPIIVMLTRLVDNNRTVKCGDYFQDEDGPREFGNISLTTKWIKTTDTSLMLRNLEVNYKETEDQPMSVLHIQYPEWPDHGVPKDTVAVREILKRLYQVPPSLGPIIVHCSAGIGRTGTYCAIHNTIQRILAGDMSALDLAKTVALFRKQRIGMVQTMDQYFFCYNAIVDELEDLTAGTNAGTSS
The assay can be described thus: co-IP; forms of PTP1 transiently expressed in ptp1 seedlings were immunoprecipitated from cellular extracts by an anti-GFP antibody; the precipitate examined by MPK6 and GFP immunoblotting; equal endogenous MPK6 input. In general terms: A western blot detects proteins with antibodies after separation by electrophoresis.

The target in assay [2] is T2, PTP1^S7AS8A–GFP (Arabidopsis) (UniProt O82656).
T2 sequence: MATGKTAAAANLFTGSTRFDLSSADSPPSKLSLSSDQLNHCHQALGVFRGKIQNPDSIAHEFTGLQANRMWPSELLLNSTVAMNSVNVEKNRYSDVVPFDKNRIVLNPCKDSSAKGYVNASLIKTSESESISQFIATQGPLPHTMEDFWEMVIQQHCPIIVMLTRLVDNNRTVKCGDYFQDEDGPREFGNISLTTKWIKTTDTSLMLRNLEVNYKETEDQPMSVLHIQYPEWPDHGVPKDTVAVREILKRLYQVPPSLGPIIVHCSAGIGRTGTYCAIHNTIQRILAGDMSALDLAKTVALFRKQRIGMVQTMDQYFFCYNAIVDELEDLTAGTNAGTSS
Described as above.

The target in assay [3] is T3, PTP1^S7DS8D–GFP (Arabidopsis) (UniProt O82656).
T3 sequence: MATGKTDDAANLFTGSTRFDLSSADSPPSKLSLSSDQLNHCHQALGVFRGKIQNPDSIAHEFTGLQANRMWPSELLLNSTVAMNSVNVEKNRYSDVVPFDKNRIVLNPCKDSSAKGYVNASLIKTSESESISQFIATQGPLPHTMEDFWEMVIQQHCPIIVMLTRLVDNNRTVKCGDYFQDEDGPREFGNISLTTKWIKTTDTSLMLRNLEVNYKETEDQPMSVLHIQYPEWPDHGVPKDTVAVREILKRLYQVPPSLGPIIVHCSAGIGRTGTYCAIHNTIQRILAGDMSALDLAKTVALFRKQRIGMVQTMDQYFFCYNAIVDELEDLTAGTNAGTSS
Described as above.

The next assay has as its target T4, PTP1-cYFP (Arabidopsis) (UniProt O82656).
T4 sequence: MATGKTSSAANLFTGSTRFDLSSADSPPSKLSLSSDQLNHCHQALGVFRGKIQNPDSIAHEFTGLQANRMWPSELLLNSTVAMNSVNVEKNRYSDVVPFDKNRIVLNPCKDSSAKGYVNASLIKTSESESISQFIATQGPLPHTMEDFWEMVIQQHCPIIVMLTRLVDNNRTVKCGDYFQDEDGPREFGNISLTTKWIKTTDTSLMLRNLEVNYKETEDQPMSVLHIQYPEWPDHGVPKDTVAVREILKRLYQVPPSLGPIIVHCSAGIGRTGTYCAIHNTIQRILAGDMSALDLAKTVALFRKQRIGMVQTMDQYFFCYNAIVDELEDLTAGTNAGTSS
The assay can be described thus: split reporter; BiFC: nYFP and cYFP fusions co-transfected into Arabidopsis leaf protoplasts; confocal microscopy (Zeiss LSM510 META).

For a further assay, the target named is MPK6-cYFP (Arabidopsis) (UniProt Q39026). The assay is described as above.

As to “MPK6 (endogenous) (from UniProt Q39026 1-395)”, the binding entry in assay [1] is “binds”; in assay [2] it was “binds”; in assay [3] it was “no binding”.
Turning to MPK6-nYFP (from UniProt Q39026 1-395), the binding entry in the assay with PTP1-cYFP (Arabidopsis) is recorded as “binds”.

B1: SnRK1.1-nYFP (SNF1 RELATED PROTEIN KINASE 1.1) (protein, UniProt Q38997-2 1-512)
chain: MDGSGTGSRSGVESILPNYKLGRTLGIGSFGRVKIAEHALTGHKVAIKILNRRKIKNMEMEEKVRREIKILRLFMHPHIIRLYEVIETPTDIYLVMEYVNSGELFDYIVEKGRLQEDEARNFFQQIISGVEYCHRNMVVHRDLKPENLLLDSKCNVKIADFGLSNIMRDGHFLKTSCGSPNYAAPEVISGKLYAGPEVDVWSCGVILYALLCGTLPFDDENIPNLFKKIKGGIYTLPSHLSPGARDLIPRMLVVDPMKRVTIPEIRQHPWFQAHLPRYLAVPPPDTVQQAKKIDEEILQEVINMGFDRNHLIESLRNRTQNDGTVTYYLILDNRFRASSGYLGAEFQETMEGTPRMHPAESVASPVSHRLPGLMEYQGVGLRSQYPVERKWALGLQSRAHPREIMTEVLKALQDLNVCWKKIGHYNMKCRWVPNSSADGMLSNSMHDNNYFGDESSIIENEAAVKSPNVVKFEIQLYKTRDDKYLLDLQRVQGPQFLFLDLCAAFLAQLRVL
As for B1, the binding result in the assay with MPK6-cYFP (Arabidopsis) and with PTP1-cYFP (Arabidopsis) was “binds” each time.
